Experimental data reported in ChEMBL document CHEMBL1157539, “Thousands of chemical starting points for antimalarial lead identification” (Nature, 2010).
In all, about 13,000 compounds were measured (“IFI”: median about 4, highest 2% from about 17 on). The list shows a part of the results.

experiment: GSK_TCMDC: Inhibition Frequency Index (IFI). The number of non-kinase HTS assays where a compound showed > 50 % inhibition, expressed as a percentage of the number of such assays in which the compound was tested (-0 is zero); format: functional

SMILES | IFI
CC(C)Cn1c(Sc2ccc(C#N)c([N+](=O)[O-])c2)nnc1-c1ccccc1 | 2.82%
COc1cc(Cn2ccc3c4c(N)nc(N)nc4ccc32)cc(OC)c1OC | 4.23%
COc1ccc2nc(C)cc(Nc3ccc(Oc4ccc(Br)c5ccccc45)c(Cl)c3)c2c1 | 8.47%
Cc1cc(NCCc2ccccc2)nc(N/C(=N/CC(=O)OC(C)(C)C)Nc2ccc(C(F)(F)F)cc2)n1 | 4.55%
O=C(NCCCN1CCOCC1)c1csc(Nc2ccc(Cl)c(Cl)c2)n1 | 0.69%
c1ccc2sc(Sc3ncnc4sccc34)nc2c1 | 4.88%
CN1CCCN(Cc2ccc(-c3cccc(NC(=O)c4cccc(F)c4)c3)cc2)CC1 | 2.94%
Cc1ccc(C(=O)Nc2ccc(Nc3ccnc4cc(-c5nccs5)ccc34)cc2O)cc1 | 9.66%
Cc1cc(O)nc(NC#N)n1 | 0%
Cc1cc(Nc2ccc(Cl)cc2)n2nc(C(F)(F)F)nc2n1 | 1.98%
Cc1cccc2nc(-c3ccc(-c4cccc(NC(=O)NCc5ccc(F)cc5)c4)cc3)[nH]c12 | 10.2%
O=C1OC2(CN1CC1CCN(Cc3ccc(O)cc3Cl)C1)c1ccccc1-c1ccccc12 (stereo not drawn) | 9.23%
COc1cc(NC(=O)/C=C/c2ccccc2OC(F)(F)F)cc(OCCN2CCN(CCN3CCOCC3)CC2)c1 | 0.72%
O=C(NCCCCN1CCN(c2nsc3ccccc23)CC1)c1ccccc1C(=O)NCCCCN1CCN(c2nsc3ccccc23)CC1 | 6.87%
Fc1cc(Cl)ccc1Nc1ccnc2cc(-c3ccc(CN4CCSCC4)o3)ccc12 | 6.43%
COc1ccc(NC(=O)Nc2ccc(-c3cccc(-c4nc5ccccc5[nH]4)c3)cc2)cc1 | 3.03%
CC1(C)NC(N)=NC(=N)N1OCCSCCON1C(=N)N=C(N)NC1(C)C | 1.43%
CC(C)(C)Nc1nc(Nc2cccc([N+](=O)[O-])c2)nc(-n2ccnc2)n1 | 2.84%
O=S(=O)(NCCN1CCCC1)c1ccc(-c2cccc(CNC3Cc4ccccc4C3)c2)s1 | 7.02%
COC(=O)c1cc(OC2CCOC2=O)cc2c1OC(C)(C)O2 (stereo not drawn) | 2.29%
COc1cc2c(cc1S(=O)(=O)c1ccc(NC(=O)c3cccc(C(F)(F)F)c3)cc1)CCN(C)CC2 | 3.51%
O=c1nc(NCCCNCc2cc3c(Cl)cc(Cl)cc3[nH]2)[nH]c2ccsc12 | 12.8%
Nc1c(I)cc(C(=O)Nc2ccc3nc4c(c(N)c3c2)CCCC4)cc1I | 22.8%
N#Cc1ccc(-c2ccc(C(=O)NCCCCN3CCC(c4ccc5c(c4OCC(N)=O)CCCC5)CC3)nc2)cc1 | 3.1%

SMILES | IFI
O=C(/C=C/c1ccc(F)cc1)NC1CCC(CCN2CCc3ccccc3CC2)CC1 (stereo not drawn) | 6.06%
Cc1ccc(O)c(C(=O)c2cnc3c(c2)c(-c2ccc(F)cc2)c(C#N)c(=O)n3C)c1 | 4.31%
CCNC(=O)N1CCN(c2nc(-c3ccccc3)nc(COC)c2Cc2ccc(C)cc2)CC1 | -0%
CCc1c(C)nc(-n2nc(C)cc2NC(=O)c2ccc(OC)cc2OC)[nH]c1=O | 11.5%
CCCCCCCN1CCC(NC(=O)Nc2ccnc3ccc(OC)cc23)C(C(=O)OCC)C1 (stereo not drawn) | 2.17%
O=C(Nc1ccc(-c2csc(-c3nc4ccccc4[nH]3)c2)cc1)Nc1ccc(Cl)c(Cl)c1 | 5%
CN1CCN(CC(=O)Nc2ccc(-c3cccc(-c4nc5cc(C(F)(F)F)ccc5[nH]4)c3)cc2)CC1 | 2.65%
CN(CCCc1c[nH]c2ccccc12)CCC1CCC(NC(=O)/C=C/c2ccc(Cl)c(Cl)c2)CC1 (stereo not drawn) | 7.09%
CCCCOc1cc2c(cc1OCC)C(C=Cc1ccc(Cl)cc1Cl)=NCC2 | 6.67%
O=C(NC1CCN(CCCc2ccccc2)CC1)c1ccc(-c2cccc(C(F)(F)F)c2)s1 | 17.2%
CN(C)Cc1cccc(-c2ccc(NC(=O)c3ccc4c(=O)n(CCN5CCCCC5)cnc4c3)cc2)c1 | 3.96%
CC(=NNC(S)=NC(c1ccccc1)c1ccccc1)c1ccccn1 | 5.88%
CS(=O)(=O)c1ccc2c(c1)CCN(CCC1CCC(NC(=O)C(=Cc3cccc(C#N)c3)c3ccc(-c4ccccc4)cc3)CC1)CC2 (stereo not drawn) | 7.59%
O=C(O)c1cccc2c(-c3ccncc3)cccc12 | -0%
FC(F)(F)c1ccc2c(C=Cc3ccncc3)c[nH]c2c1 | 1.48%
O=C(Nc1cccc(-c2ccc(-c3nc4ccccc4[nH]3)cc2)c1)c1cnn2cccnc12 | 2.86%
C#CCCOc1ccc2ccccc2c1CNCCCCCCNCc1c(OCCC#C)ccc2ccccc12 | 12.8%
COc1ccc(-n2cc(C(=O)c3cc(Br)ccc3O)cc(C#N)c2=O)cc1Cl | 14.8%
CN1CCC(Oc2ccc(Nc3nccc(NCC(O)c4ccccc4)n3)cc2Cl)CC1 (stereo not drawn) | 7.14%
O=C(Nc1ccc(C2=NC3CCCCC3N2)cc1)Nc1ccc(C2=NC3CCCCC3N2)cc1 (stereo not drawn) | 2.88%
Cc1cc(N[C@@H](Cc2ccccc2)C(=O)NCc2cccc(F)c2)nc(NCCc2cccnc2)n1 | 2.44%
Oc1cc(NC[C@@H]2CCC[C@@H]2NCc2ccc(Cl)c(Cl)c2)nc2ccccc12 | 12%
CC(=O)Nc1ccc(CN2CCC(NC(=O)c3ccc(-c4cccc(C(F)(F)F)c4)s3)CC2)cc1 | 10.3%
CON(CCCN(C)C)C(=N)N | -0%

SMILES | IFI
COc1ccc(CNC2CCN(C)CC2)cc1-c1ccc(S(=O)(=O)NC2CCC2)c(C)c1 | 5.88%
C=CCOC(=O)N1CCC(CNCc2cccc(-c3cccc(-c4nc5cccc(C)c5[nH]4)c3)c2)C1 (stereo not drawn) | 5%
COc1cccc(C2(c3cccc(OC)c3)N=C(N)N(CCCc3ccccc3)C2=O)c1 | 9%
COc1ccc(-c2ccc(NC(=O)c3cccc(Cl)c3)cc2)cc1CN1CCCC1 | 6.8%
COC(=O)c1cccc(N2CCN(CCCNC(=O)/C(=C/C=C/c3cc4cc(Cl)c(Cl)cc4[nH]3)OC)CC2)c1 | 6.11%
CCCCSc1ccc(CNCCCCCCNCc2ccc(SCCCC)c3ccccc23)c2ccccc12 | 14.8%
N#Cc1cc(C(=O)c2cc(Cl)ccc2O)cn(-c2cc(Cl)cc(Cl)c2)c1=O | 17.4%
N#Cc1ccc(-c2ccc3nc(N4CCCN(C5CCC5)CC4)ccc3c2)cc1 | 6.73%
O=C(N[C@@H](CC1CCCCC1)C(=O)NC1CCCc2ccccc21)c1ccc(O)c(-c2cccc(C(F)(F)F)c2)c1 (stereo partly drawn) | 0.73%
C=CCc1cc(Cc2cnc(N)nc2N)c2ccc(C)nc2c1O | 1.5%
CC1(C)CN2CCCC2c2cc(NC(=O)/C=C/c3ccccc3Cl)ccc21 (stereo not drawn) | 2.22%
Cc1ccccc1C1CCN(C2CCC(NC(=O)c3ccc(-c4ccccc4F)o3)CC2)CC1 (stereo not drawn) | 5.26%
O=C(Nc1cc(Cl)ccc1O)c1ccc(Oc2ccc(C(=O)Nc3cc(Cl)ccc3O)cc2)cc1 | 0.69%
O=S(=O)(c1ccccc1)C1CC1 | -0%
CSc1ccc(NC(=O)Nc2cc(C)nc3ccccc23)cc1Br | 2.92%
CC1(C)NC(N)=NC(=N)N1OCCCOc1c(Cl)cc(Cl)cc1Cl | 2.9%
N#Cc1cccc(C(=O)Nc2ccc(-c3nc4ccccc4[nH]3)cc2)c1 | 2.38%
O=C(Nc1ccc(Cl)cc1)c1ccc(CN2CCCN(Cc3ccc(F)cc3)CC2)cc1 | 10.8%
COc1cc(CNC2Cc3ccccc3C2)ccc1Oc1ccc2nc[nH]c2c1 | -0%
CCOC(=O)N(C)/N=C/[C@H](CCc1ccccc1)NC(=O)[C@H](CC(C)C)NC(=O)c1cc2cccc(OC)c2o1 | 5.5%
c1ccc(-n2cncn2)cc1 | -0%
CC(C)OC(=O)c1ccc(NC(=O)N[C@@H](Cc2ccc(O)cc2)C(=O)NC2CCC(CCN3C4CCC3c3ccccc34)CC2)cc1 (stereo partly drawn) | 4.31%
Nc1c(C(=O)NCCCCN2CCN(c3nsc4ccccc34)CC2)sc2ccccc12 | 7.63%
COc1ccc2ncc(F)c(CCN3CC(O)C(CNCc4ccc5ccccc5c4)C3)c2n1 (stereo not drawn) | 8.82%

SMILES | IFI
Cc1cc(N(C)C)nc(Nc2ccc(NC(=O)c3ccccc3C)cc2)n1 | 2.33%
NC(=O)N1CCN(Cc2ccc(Br)cc2)CC1 | 1.48%
Nc1nc(N)c2c(ccc3c2ccn3C2CCCCC2)n1 | 6.62%
COc1cc2nc(N[C@@H](CO)c3ccccc3)nc(NCc3ccccc3)c2cc1OC | 2.94%
CCOC(=O)N1CCN(CCCCCNc2cc(C)nc(NC(=N)Nc3ccc(Cl)cc3)n2)CC1 | 6.06%
O=C(NC1CC1)c1cnc(N2CCC(OCc3ccccc3)CC2)c(Cl)c1 | 2.38%
CCOC(=O)c1ccc(NC(=O)c2ccccc2C(=O)O)cc1 | 0.7%
O=C(Nc1cccc(CN2CCCN(Cc3ncc[nH]3)CC2)c1)c1ccc(-c2ccccc2)cc1 | 3.42%
CC(=O)Nc1ccc2[nH]cc(C3CCN(CC4CCN(C(=O)/C=C/c5ccc(Cl)c(Cl)c5)CC4)CC3)c2n1 | 2.11%
COC(=O)c1ccc(NC(=O)Nc2ccc(Cn3ncc(N4CCCNCC4)c(Cl)c3=O)cc2)cc1 | 5.97%
O=[N+]([O-])c1cccc(CNCC2CCN(Cc3ccc(Cl)c(Cl)c3)CC2)c1 | 4.23%
Cc1cc(C(=O)CN2C(=O)NC3(CCOc4ccccc43)C2=O)c(C)n1Cc1ccc(F)cc1 (stereo not drawn) | 1.43%
Cc1nc(C)c(-c2ccc(Oc3ccc(Cl)c(Cl)c3)cc2)c(O)c1Br | 3.85%
NC1CCN(c2nc(NCCc3ccc(O)cc3)nc(NCc3ccccc3-c3ccccc3)n2)CC1 | 4.55%
CC1=C(C(=O)Nc2ccc(Cl)cc2)C(c2ccncc2)n2nc(C(F)(F)F)nc2N1 (stereo not drawn) | -0%
Clc1ccc2c(NCc3ccc4c(c3)OCO4)ccnc2c1 | 4.41%
NC1CCN(c2nc(NCCc3ccc(O)cc3)nc(NCc3ccccc3-c3ccc(C(F)(F)F)cc3)n2)CC1 | 7.58%
CC(C)[C@H](NCC(=O)c1ccccc1)C(=O)O | 1.44%
CN1CCN(c2nc(NCCc3ccc(O)cc3)nc(NCc3ccccc3-c3ccc(C(F)(F)F)cc3)n2)CC1 | 11.8%
CCOC(=O)c1cn(CC)c2cc(N3CCCCCC3)c(F)cc2c1=O | 2.21%
COc1cc(Br)ccc1N1CCN(CCCCNC(=O)c2ccc(NC(=O)c3ccc(Cl)cc3)cc2)CC1 | 6.14%
